Data: PubChem BioAssay AID886 (National Center for Advancing Translational Sciences (NCATS), 2007)
Among all 73,000 compounds or so, about 2,500 (3.4%) were called active. The inconclusive results got no clear call from the source; some entries with a clear call stand among them for comparison. Calls follow the shape of the dose curve; as a rule, active = well fitted inhibition curve with a large enough effect; inconclusive = small, poorly fitted or top-dose-only effect; inactive = no such curve, though single readings can be large or run the other way. Potencies beside an inconclusive call are fits to weak or partial responses and may not hold up. The source holds several records for some structures; these can differ, active in one and inactive in another.

molecular target: 3-hydroxyacyl-CoA dehydrogenase type-2 (Homo sapiens) (UniProt Q99714); experiment: qHTS Assay for Inhibitors of HADH2 (Hydroxyacyl-Coenzyme A Dehydrogenase, Type II); conditions: recombinant HADH2, NADH fluorescence, beta-hydroxybutyryl-CoA; activity change, negative = inhibition: at 57.1 µM (top of the series); also: nearly all actives have a fitted effect of over 60% in size
Summary of the method: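 E. coli-expressed His-tagged HADH2 tested at 20 nM in alkaline Tris buffer (pH 9.0); oxidation of 90 uM beta-hydroxybutyryl-CoA with 1 mM NAD+ tracked fluorimetrically for 4 min.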
% is scaled to controls: 0 for no effect and ±100 for the full control effect; potency is read from the fitted curve at half-maximal effect; tags tell the direction and shape of the fitted curve.

Sequence of UniProt Q99714 (Q99714 whole entry, looked up): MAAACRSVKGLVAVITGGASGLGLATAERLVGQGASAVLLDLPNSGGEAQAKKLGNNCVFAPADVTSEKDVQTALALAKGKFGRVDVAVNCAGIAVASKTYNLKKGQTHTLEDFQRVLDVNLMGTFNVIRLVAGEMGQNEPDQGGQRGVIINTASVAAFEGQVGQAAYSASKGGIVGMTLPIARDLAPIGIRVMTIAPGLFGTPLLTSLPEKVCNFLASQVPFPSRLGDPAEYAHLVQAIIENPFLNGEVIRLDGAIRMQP
Sequence of UniProt Q99714 (Q99714 whole entry, looked up): as above

| SMILES | Potency | activity change, negative = inhibition |
| --- | --- | --- |
| O=C(/C=C\c1ccc(O)c(O)c1)OCCc1ccccc1 | active: 12.6 µM |  |
| COc1cc(C(c2sc3nc(C)nn3c2O)N2CCc3ccccc3C2)cc(OC)c1OC (stereo not given) | inconclusive: 39.8 µM [inhibitor, single point] |  |
| CN1CCCC[C@@H]1CCN1c2ccccc2Sc2ccc(S(C)=O)cc21 (stereo not given in full) | active: 3.98 µM |  |
| CCC(C(=O)N1CCc2cc(OC)c(OC)cc2C1)c1ccccc1 (stereo not given) | inconclusive: 39.8 µM [inhibitor, single point] |  |
| O=C1c2ccccc2NC2(CCCCC2)N1c1ccc(O)cc1 | inconclusive: 31.6 µM [inhibitor, single point] |  |
| C=CCNC(=O)C1CCN(S(=O)(=O)CC)CC1 | inactive |  |
| COc1ccc(OC)c2sc(N3CCN(c4ccccc4)CC3)nc12 | inconclusive: 20 µM [inhibitor, single point] |  |
| N#CC1=C(N)SC(N)=C(C#N)C1c1cccc(Oc2ccccc2)c1 | active: 2 µM |  |
| O=c1cc(-c2ccccc2O)oc2c(O)c(O)ccc12 | active: 0.316 µM |  |
| COc1cccc2c3c(c(C)nc12)CC(C)O3 (stereo not given) | active: 20 µM |  |
| CCCC(=O)NCCc1cc2cc(C)c(C)cc2[nH]c1=O | inactive |  |
| CCOC(=O)C1Cn2c(nc3c(c2=O)C(C)(CC)Cc2ccccc2-3)S1 (stereo not given) | inconclusive: 39.8 µM [inhibitor, single point] |  |
| CN1C(=O)c2ccc(NC(=O)c3c(F)c(F)c(F)c(F)c3F)cc2C1=O | inconclusive: 31.6 µM [inhibitor, single point] |  |
| CC(C)NC(=O)N1CC[C@@]2(CCCN(S(C)(=O)=O)C2)C1 | inactive |  |
| CCOC(=O)C1=C(C)NC2=C(C(=O)CCC2)C1c1cccs1 (stereo not given) | inconclusive: 25.1 µM [inhibitor, single point] |  |
| CCC(=O)Nc1ccc(C(=O)c2ccccc2)cc1 | inactive |  |
| Cc1sc(NC(=O)CSc2nnc(C)c(=O)[nH]2)c(C#N)c1C | inconclusive: 39.8 µM [inhibitor, single point] |  |
| CCOC(=O)c1sc(-c2ccccc2)cc1NC(=O)CSc1nnnn1C | inconclusive: 31.6 µM [inhibitor, single point] |  |
| COc1ccc(N2CCN(C(c3cc4ccc(C)cc4[nH]c3=O)c3nnnn3C3CCCC3)CC2)cc1 (stereo not given) | inactive |  |
| Cc1cc(C)nc(Nc2nc(C)c3cc4c(cc3n2)OCO4)n1 | inconclusive: 31.6 µM [inhibitor, single point] |  |
| COc1ccccc1CNc1ccnc(-c2c(C)noc2C)n1 | inconclusive: 15.8 µM [inhibitor, partial curve] |  |
| Cc1nc2ccc(NC(=O)N3CCSCC3)cc2nc1C | inconclusive: 39.8 µM [inhibitor, single point] |  |
| N#CC1=C(N)Oc2c(oc(CO)cc2=O)C1c1cccs1 (stereo not given) | inconclusive: 0.0398 µM [inhibitor, full curve, poor fit] |  |
| CCn1c(SCC(=O)c2ccc(O)c(O)c2)nnc1-c1ccccc1OC | inconclusive: 31.6 µM [inhibitor, partial curve] |  |
| O=C(CSc1nc2ccccc2c(=O)n1Cc1ccco1)N1CCN(c2ccccc2)CC1 | inactive |  |
| N#Cc1nc(-c2ccc(OCc3ccccc3)cc2)oc1NCc1ccco1 | inconclusive: 31.6 µM [inhibitor, single point] |  |
| CO/N=C(\C(=O)N[C@@H]1C(=O)N2C(C(=O)O)=C(COC(N)=O)CS[C@@H]12)c1ccco1 | inconclusive: 12.6 µM [inhibitor, partial curve] |  |

| SMILES | Potency | activity change, negative = inhibition |
| --- | --- | --- |
| CCNc1ncc2ncc(=O)n(C3CC3)c2n1 | inconclusive: 3.16 µM [inhibitor, partial curve] |  |
| CN(C)c1ccnc(-c2ccccc2C(F)(F)F)n1 | inconclusive: 39.8 µM [inhibitor, single point] |  |
| COc1ccccc1CNc1ncncc1-c1ccccc1C | inconclusive: 10 µM [inhibitor, partial curve] |  |
| O=C(O)C(Cl)(c1ccccc1)c1ccccc1 |  | inactive: 5.3% [at 11.4 µM] |
| COCCN(C(=O)CCC(=O)Nc1ccccn1)C(C(=O)NC1CCCC1)c1ccc(OC)cc1 (stereo not given) | inactive |  |
| CCOC(=O)C1CCCN(C(=O)CCC(=O)Nc2ccc3nc(N4CCOCC4)cc(C)c3c2)C1 (stereo not given) | active: 20 µM |  |
| O=c1oc2cc(OCc3nn[nH]n3)ccc2c2c1CCCC2 | active: 15.8 µM |  |
| Cc1cccc2cc(COC(=O)C3CCCO3)c(=O)[nH]c12 (stereo not given) | inactive |  |
| CCOC(=O)c1c(NC(=O)CN2CCOCC2)sc2c1CCCC2 | inactive |  |
| Cc1ccc(Br)cc1 | inactive |  |
| C=CCn1c(NC(=O)c2ccccc2)c(C#N)c2nc3ccccc3nc21 | inactive |  |
| COC(=O)C1=CN(C)C=C(C(=O)OC)C1c1ccsc1 | inconclusive: 7.94 µM [inhibitor, single point] |  |
| O=C(O)c1ccc(CSc2nnc(-c3ccco3)o2)cc1 | inactive |  |
| COc1ccc(-c2nc3cnc(Nc4cccc(OC)c4)nc3n(C[C@H]3CCCO3)c2=O)cc1 | inactive |  |
| OC1(c2ccc(F)cc2)CCN(Cc2ccccc2)C1 (stereo not given) | inactive |  |
| Cc1c(NC(=O)C(C)OC(=O)CC2Sc3ccccc3NC2=O)c(=O)n(-c2ccccc2)n1C (stereo not given) | inactive |  |
| CCCCCCCCCCCCC/C=C\[C@H](O)[C@H](N)CO | inactive |  |
| CN1/C(=C/C(=O)C2CCC2)Sc2ccccc21 | inconclusive: 31.6 µM [inhibitor, single point] |  |
| COC(=O)c1cc(S(=O)(=O)N2CCOCC2)ccc1Sc1ccccc1N | inconclusive: 31.6 µM [inhibitor, single point] |  |
| c1ccc(N2CCN(c3nc4cc5c(cc4s3)OCO5)CC2)cc1 | active: 7.94 µM |  |
| Cc1c(NC(=O)c2c(F)c(F)c(F)c(F)c2F)c(=O)n(-c2ccccc2)n1C | inconclusive: 39.8 µM [inhibitor, single point] |  |
| CC(=O)n1cc(Nc2ccccc2C(=O)O)c2ccccc21 | active: 20 µM |  |
| Cc1cc(NCCCCO)n2c(nc3ccccc32)c1C#N | active: 31.6 µM |  |
| CCOC(=O)N1CCN(c2cc(=O)n(-c3ccccc3Cl)c(=O)[nH]2)CC1 | inconclusive: 39.8 µM [inhibitor, single point] |  |
| Cn1cc(C2NC(=O)c3c(sc4c3CCCC4)N2)c2ccccc21 (stereo not given) | inconclusive: 39.8 µM [inhibitor, single point] |  |
| COCCOC(=O)c1[nH]c2c(c1C)C(=O)C(C(=O)OC)C(C)C2 (stereo not given) | inactive |  |
| COCCn1c(=O)c(-c2cccc(C#N)c2)nc2cnc(N3CCOCC3)nc21 | inactive |  |

| SMILES | Potency | activity change, negative = inhibition |
| --- | --- | --- |
| CC1=C(C#N)C(c2cccnc2)C2=C(CC(C)(C)CC2=O)N1 (stereo not given) | inconclusive: 31.6 µM [inhibitor, single point] |  |
| Cc1ccc(Nc2ncnc3nc[nH]c23)cc1Cl | inconclusive: 31.6 µM [inhibitor, single point] |  |
| CCOc1ccc(-c2nnc(N)s2)cc1 | inconclusive: 39.8 µM [inhibitor, single point] |  |
| COc1cc(C2C(C#N)=C(N)Oc3n[nH]c(-c4ccncc4)c32)cc(OC)c1OC (stereo not given) | inconclusive: 20 µM [inhibitor, partial curve] |  |
| Cc1nn(-c2ccccc2)c2sc(C(=O)N3CCOCC3)cc12 | inactive |  |
| Cc1sc(NC(=O)CSc2nnc3scc(-c4ccccc4)n23)c(C#N)c1C | inactive |  |
| CCN1CCN(S(=O)(=O)c2cc(C)c(OC)cc2C)CC1 | inconclusive: 39.8 µM [inhibitor, single point] |  |
| Cc1cc(C)c(C#N)c(Nc2ccc3c(c2)OCCO3)n1 | inconclusive: 31.6 µM [inhibitor, single point] |  |
| CCCCc1nc2ccccc2n1Cc1nnc2n1-c1ccccc1SC2 | inconclusive: 7.94 µM [inhibitor, single point] |  |
| CC1C(=O)OC2C(O)C34C5CC(C(C)(C)C)C36C(OC(=O)C6O)OC4(C(=O)O5)C12O (stereo not given) | inconclusive: 25.1 µM [inhibitor, single point] |  |
| c1coc(C2Nc3ccccc3-c3nc4ccccc4n32)c1 (stereo not given) | active: 15.8 µM |  |
| Cc1ccc(CNC(=O)CS(=O)Cc2nc(-c3cccs3)oc2C)cc1 (stereo not given) | inconclusive: 25.1 µM [inhibitor, single point] |  |
| COc1ccc(-c2cc3ccccc3n2CC(O)CN2CCOCC2)cc1 (stereo not given) | inconclusive: 39.8 µM [inhibitor, single point] |  |
| Cc1cc(O)c(-c2cc(O)c(C)cc2O)cc1O | active: 0.398 µM |  |
| O=C(NCC1CCCO1)c1cc(-c2ccco2)nc2ccccc12 (stereo not given) | active: 12.6 µM |  |
| COc1ccc(NC(=O)Cn2nnc(C(N)=O)c2N)c(OC)c1 | inactive |  |
| COc1ccc(-c2c(C)oc3c(CN4CCN(C)CC4)c(O)ccc3c2=O)cc1 | active: 15.8 µM |  |
| CC(C)CN(C(=O)COC(=O)c1cc2ccccc2oc1=O)C1CCS(=O)(=O)C1 (stereo not given) | inconclusive: 39.8 µM [inhibitor, single point] |  |
| Cc1noc(C)c1-c1nc(N(C)C)c2ccccc2n1 | active: 3.98 µM |  |
| C=CC1CO1 (stereo not given) | inactive |  |
| O=C(Nc1ccc(SC(F)F)cc1)c1ccc2nccnc2c1 | inconclusive: 12.6 µM [inhibitor, partial curve] |  |
| CCOC(=O)NC1(NC2CCCCC2)Oc2ccccc2O1 | inconclusive: 2 µM [inhibitor, full curve] |  |
| Brc1ccccc1C1=Nn2c(nnc2-c2ccccc2)SC1 | inconclusive: 31.6 µM [inhibitor, single point] |  |
| Cc1ccc(Nc2nc(C3CC3)cs2)cc1 | active: 25.1 µM |  |
| c1ccc2oc(-c3nn4c(Cn5cnc6ccccc65)nnc4s3)cc2c1 | active: 31.6 µM |  |
| Cc1c(C(=O)Nc2cccc(Cl)c2)oc2ccc(S(=O)(=O)N3CCC4(CC3)OCCO4)cc12 | inconclusive: 31.6 µM [inhibitor, single point] |  |
